{"source": "paper PMC6919601", "about": "“Identification of Plasmodium dipeptidyl aminopeptidase allosteric inhibitors by high throughput screening” (PLoS ONE, 2019)", "note": "The whole screen tested about 110,000 compounds, of which about 230 (0.21%) showed an effect of 50% or more. This is one part of the list.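 Also: 30 min substrate incubation versus DMSO and 10 µM JCP410 controls.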"}
{"target": "DPAP1 (Plasmodium falciparum, UniProt Q8IIJ9)", "sequence (Q8IIJ9 whole entry, looked up)": "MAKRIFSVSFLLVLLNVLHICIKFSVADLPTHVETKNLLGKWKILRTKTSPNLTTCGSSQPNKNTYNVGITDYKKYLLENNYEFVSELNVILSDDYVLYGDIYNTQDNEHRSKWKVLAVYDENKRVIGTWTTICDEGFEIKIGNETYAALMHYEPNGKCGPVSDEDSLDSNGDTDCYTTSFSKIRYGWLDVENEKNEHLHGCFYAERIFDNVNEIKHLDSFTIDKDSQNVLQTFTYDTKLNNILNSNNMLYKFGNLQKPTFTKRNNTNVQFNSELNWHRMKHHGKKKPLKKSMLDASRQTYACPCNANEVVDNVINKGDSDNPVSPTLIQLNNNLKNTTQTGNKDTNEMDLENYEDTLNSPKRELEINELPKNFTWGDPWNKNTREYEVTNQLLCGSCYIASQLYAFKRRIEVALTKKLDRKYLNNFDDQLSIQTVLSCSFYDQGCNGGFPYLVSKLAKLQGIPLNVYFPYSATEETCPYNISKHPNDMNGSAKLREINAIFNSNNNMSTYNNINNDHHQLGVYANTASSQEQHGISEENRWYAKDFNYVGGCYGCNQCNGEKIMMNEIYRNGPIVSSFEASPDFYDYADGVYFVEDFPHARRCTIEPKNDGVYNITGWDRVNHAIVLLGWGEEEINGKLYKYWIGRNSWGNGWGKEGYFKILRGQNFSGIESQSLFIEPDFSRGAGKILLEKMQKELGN", "assay": "primary screen, percent inhibition; read by cleavage of a fluorogenic dipeptide substrate; higher = more effect of the substance", "parameters": "species or system P. falciparum D10 trophozoite lysates; single well", "units": {"% Inhibition @ 10 uM": "%"}}
{"smiles": "COP(=O)(OC)C(Nc1cccc(C(F)(F)F)c1)c1cccc(C)c1", "note": "(centres unmarked)", "% Inhibition @ 10 uM": -3.62}
{"smiles": "CCOC(=O)N1CCN(C(=O)CCc2c(C)nc3nc(C)nn3c2C)CC1", "% Inhibition @ 10 uM": -0.465}
{"smiles": "O=S(=O)(Nc1ccc(Nc2ccccc2)cc1)c1ccc(F)cc1", "% Inhibition @ 10 uM": 0.316}
{"smiles": "O=c1cccc2n1C[C@H]1C[C@@H]2CN(Cc2ccco2)C1", "% Inhibition @ 10 uM": -3.63}
{"smiles": "Cc1cccc(NS(=O)(=O)c2c(C)cc(C)cc2C)c1", "% Inhibition @ 10 uM": 1.83}
{"smiles": "COc1ccc(C(=O)N2CCN(c3ccc(C)c(C)c3)CC2)cc1OC", "% Inhibition @ 10 uM": -3.78}
{"smiles": "Cc1cc(=O)n2nc(N3CCCC(C(=O)NCCCN4CCc5ccccc5C4)C3)sc2n1", "note": "(centres unmarked)", "% Inhibition @ 10 uM": -2}
{"smiles": "O=C(NCCc1ccc(Cl)cc1)c1ccc(CNc2c(N3CCOCC3)c(=O)c2=O)cc1", "% Inhibition @ 10 uM": 3.07}
{"smiles": "CC(Cc1ccccc1)/N=C/C1=C(O)CNC1=O", "note": "(centres unmarked)", "% Inhibition @ 10 uM": 1.96}
{"smiles": "Cc1nc2c(O)oc3ccccc3c-2n1", "% Inhibition @ 10 uM": 2.05}
{"smiles": "O=C1N/C(=C/c2ccc(-c3ccc(F)cc3)o2)C(=O)N1Cc1ccccc1", "% Inhibition @ 10 uM": -5.14}
{"smiles": "CC1CC(=O)C2=C(C1)OC(N)=C(C#N)C2c1ccc(Cl)c(Cl)c1", "note": "(centres unmarked)", "% Inhibition @ 10 uM": 0.317}
{"smiles": "CC(CCN1CCN(c2ccccc2Cl)CC1)c1ccccc1", "note": "(centres unmarked)", "% Inhibition @ 10 uM": -9.55}
{"smiles": "COc1cccc(/C(O)=C/c2nc3ccc(C(=O)N4CCN(c5ccccn5)CC4)cc3nc2O)c1", "% Inhibition @ 10 uM": -4.66}
{"smiles": "O=C(COc1ccc(Cl)cc1Cl)Nc1ccc(F)cc1F", "% Inhibition @ 10 uM": -3.77}
{"smiles": "CCC(C)NC(=O)Cn1ncc2c(C)n(Cc3cccc(Cl)c3)c(C)c2c1=O", "note": "(centres unmarked)", "% Inhibition @ 10 uM": -2.17}
{"smiles": "CCCCOc1ccc(C(C)(N)CC(=O)O)cc1", "note": "(centres unmarked)", "% Inhibition @ 10 uM": 2.86}
{"smiles": "O=C(NC1CCCCC1NC(=O)C1CC1)C1CC1", "note": "(centres unmarked)", "% Inhibition @ 10 uM": -1.6}
{"smiles": "CCOC(=O)c1sc(C)c2c(=O)n(Cc3ccccc3)c(C)nc12", "% Inhibition @ 10 uM": 1.37}
{"smiles": "CCc1cc(CC)c(/C=C(\\C#N)C(N)=O)c(CC)c1", "% Inhibition @ 10 uM": -2.51}
{"smiles": "CC(Oc1c(F)c(F)cc(F)c1F)C(=O)NCc1ccc(-n2cccc2)cc1", "note": "(centres unmarked)", "% Inhibition @ 10 uM": 4.61}
{"smiles": "O=C(O)c1ccc(N2C(=O)C3C4CCC(C4)C3C2=O)cc1", "note": "(centres unmarked)", "% Inhibition @ 10 uM": -3.5}
{"smiles": "O=C1c2ccccc2C(=O)C1(NCc1ccc2c(c1)OCO2)c1ccccc1", "% Inhibition @ 10 uM": -6.73}
{"smiles": "Nc1c(S(=O)(=O)c2ccccc2)c2nc3ccccc3nc2n1CCCO", "% Inhibition @ 10 uM": 0.989}
{"smiles": "Cc1cc(-c2ccccc2)nc(N2CCCC(C(=O)O)C2)n1", "note": "(centres unmarked)", "% Inhibition @ 10 uM": 0.401}
{"smiles": "COc1ccc(N(C(C)C(=O)N(C)C)S(C)(=O)=O)cc1", "note": "(centres unmarked)", "% Inhibition @ 10 uM": -17.1}
{"smiles": "COC(=O)c1c(SC)nc2ccccc2c1OCc1ccccc1", "% Inhibition @ 10 uM": -7.91}
{"smiles": "COc1ccc2nc(NC(=O)CSC3=NCCS3)sc2c1", "% Inhibition @ 10 uM": -2.54}
{"smiles": "COc1ccccc1[C@@H](C)C[C@H](NC(=O)c1ccc(-c2ccccc2Cl)nc1)C(=O)NCC#N", "% Inhibition @ 10 uM": -8.36}
{"smiles": "Cc1cccc(NC(=O)c2ccc(C(C)(C)C)cc2)n1", "% Inhibition @ 10 uM": -5.01}
{"smiles": "N=C(Nc1ccc(Br)cc1)c1ccccc1", "% Inhibition @ 10 uM": 6.18}
{"smiles": "O=C(NCC1(c2ccccc2)CCOCC1)c1ccccc1Cl", "% Inhibition @ 10 uM": 1.37}
{"smiles": "CCCOc1ccc(C2CC(=O)NC3=C2C(=O)CC(C)(C)C3)cc1OC", "note": "(centres unmarked)", "% Inhibition @ 10 uM": 10.4}
{"smiles": "CCOC(=O)c1cc(C)n(-c2ccc(C(=O)Nc3nc4ccc(OCC)cc4s3)cc2)c1C", "% Inhibition @ 10 uM": 0.693}
{"smiles": "COc1ccccc1/C=C/c1nc(-c2ccc(OC)c(OC)c2)no1", "% Inhibition @ 10 uM": -3.33}
{"smiles": "O=C1C2C3C=CC(C3)C2C(=O)N1Cc1ccccc1", "note": "(centres unmarked)", "% Inhibition @ 10 uM": -0.807}
{"smiles": "CC1CN(C(=O)C2(C)CCCCC2)c2ccccc21", "note": "(centres unmarked)", "% Inhibition @ 10 uM": -4.18}
{"smiles": "Cc1cccc(C2=N/C(=C\\c3ccc(C(C)C)cc3)C(=O)O2)c1", "% Inhibition @ 10 uM": -2.6}
{"smiles": "COc1ccc(C2C(C(=O)Nc3nc4ccccc4s3)c3ccccc3C(=O)N2C)cc1", "note": "(centres unmarked)", "% Inhibition @ 10 uM": 0.457}
{"smiles": "O=C(/C=C/c1ccccc1)Nc1cc(C(=O)O)cc(C(=O)O)c1", "% Inhibition @ 10 uM": -3.52}
{"smiles": "C=CCNc1ncnc2c1cnn2C", "% Inhibition @ 10 uM": -3.02}
{"smiles": "CC1CC(=O)C2=C(C1)OC(N)=C(C#N)C2c1ccccc1F", "note": "(centres unmarked)", "% Inhibition @ 10 uM": -5.57}
{"smiles": "CN(C)CCN(C(=O)Cc1ccccc1)c1nc2cc3c(cc2s1)OCO3", "% Inhibition @ 10 uM": -3.88}
{"smiles": "CCOC(=O)N1CCC(NS(=O)(=O)c2ccc3oc(=O)c4ncn(CC)c4c3c2)CC1", "% Inhibition @ 10 uM": 1.49}
{"smiles": "CN1CCC(N(C)C/C(Br)=C/c2ccccc2)CC1", "% Inhibition @ 10 uM": -5.26}
{"smiles": "O=c1c(S(=O)(=O)c2ccc(Cl)cc2)c(O)cc(-c2ccccc2)n1-c1ccccc1", "% Inhibition @ 10 uM": -6.58}
{"smiles": "Cn1c(=O)c2c(nc(CN3CCN(C(=O)c4ccco4)CC3)n2Cc2ccccc2Cl)n(C)c1=O", "% Inhibition @ 10 uM": -0.499}
{"smiles": "CCOc1c(Br)cc(CNCCCSc2nnnn2C)cc1OC", "% Inhibition @ 10 uM": -2.88}
{"smiles": "CCOC(=O)N1CCC2(CC1)OC(=O)C(C)=C2C(=O)NCCCN1CCCCC1C", "note": "(centres unmarked)", "% Inhibition @ 10 uM": -3.56}
{"smiles": "O=C(Nc1ccc(CN2CCOCC2)cc1)c1sc2ccccc2c1Cl", "% Inhibition @ 10 uM": -8.15}
